Laboratory results from PubChem BioAssay AID1458 (National Center for Advancing Translational Sciences (NCATS), 2008).
Where “and” joins values, the source holds several entries; their conditions need not be identical. Identical values can stand only once. The whole screen tested about 210,000 compounds, of which about 5,900 (2.8%) were called active. Inconclusive results, whose numbers are uncertain, are shown with a selection of clear calls. The call rests on the fitted dose curve; in most records, active means well fitted activation curve with a large enough effect; inconclusive means small, poorly fitted or top-dose-only effect; inactive means no such curve, though single readings can be large or run the other way. A potency beside an inconclusive call is a rough fit, not a confirmed value.

test: qHTS Assay for Enhancers of SMN2 Splice Variant Expression; settings: HEK293 SMN2-luciferase splicing reporter, luminescence, 30-36 h; series mostly up to 46.1 µM; further: nearly all actives have a fitted effect of over 55% in size
Summary of the method: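 HEK293 cells carry an SMN2 minigene-luciferase reporter in which exon 7 inclusion puts luciferase in frame. Cells were seeded at 2000 cells/well, attached for 10-12 hours, then exposed to compounds for 30-36 hours at 37C before ONE-Glo luminescence.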
Potency means the concentration at half of the fitted maximal effect; tags describe the fitted curve by direction and shape.

Question: Which Potency does the source give for `Cc1ccc2c(CC(=O)Nc3ccc(S(=O)(=O)N4CCCCC4)cc3)coc2c1C` here?
Answer: Its Potency is “inactive”.

Question: For `CC(C)CN(C(=O)CN1CCN(S(=O)(=O)c2ccccc2)CC1)c1c(N)n(CC(C)C)c(=O)[nH]c1=O`, which Potency is on record?
Answer: The Potency was inconclusive: 0.708 µM [activator, full curve, poor fit].

Question: For `CCc1ccc(-n2nc(CO)c(C(=O)NC)n2)cc1`, which Potency is on record?
Answer: The Potency was inconclusive: 20 µM [activator, single point].

Question: Which Potency does the source give for `O=c1c(-c2ccc(Br)cc2)coc2c(CN3CCOCC3)c(O)ccc12` here?
Answer: Its Potency is “inactive”.

Question: Which Potency does the source give for `FC(F)(F)c1cccc(OCCOCCn2cncn2)c1` here?
Answer: The Potency was “inactive”.

Question: Which Potency does the source give for `COc1ccc(CCNS(=O)(=O)c2ccc3c(c2)OCCO3)cc1` here?
Answer: Its Potency is inconclusive: 5.62 µM [activator, single point].

Question: Which Potency does the source give for `O=c1[nH]c(CN2CCN(c3ccc(O)cc3)CC2)nc2scc(-c3ccc(Cl)cc3)c12` here?
Answer: The Potency was “inactive”.

Question: With `Cc1ccc2cccc(OCC(=O)Nc3ccc4c(c3)OCO4)c2n1` as the compound, how does the Potency read?
Answer: The Potency was “inactive”.

Question: Which Potency does the source give for `COc1ccc(CSC2=NCCN2)cc1Cl` here?
Answer: Its Potency is inconclusive: 14.1 µM [activator, partial curve].

Question: For `O=C(COc1cccc(C(F)(F)F)c1)Nc1ccc(S(=O)(=O)N2CCCC2)cc1`, which Potency is on record?
Answer: The Potency was inconclusive: 0.891 µM [activator, full curve].

Question: For `Cc1cc(C)n(-c2nc3ccccc3nc2N2CCN(C(=O)c3ccc(Cl)cc3)CC2)n1`, which Potency is on record?
Answer: The Potency was inconclusive: 0.0562 µM [activator, full curve, poor fit].

Question: Which Potency does the source give for `CCc1ccc(OCC(=O)Nc2ncn[nH]2)cc1` here?
Answer: The Potency was inconclusive: 17.8 µM [activator, partial curve, poor fit].

Question: Which Potency does the source give for `Cc1ccc2nc(-c3ccc(NC(=O)COc4ccc(Br)cc4Br)cc3)sc2c1` here?
Answer: The Potency was active: 2.82 µM.

Question: With `CCOc1cc(/C=C(/C#N)C(=O)Nc2ccc(O)cc2)cc(Br)c1O` as the compound, how does the Potency read?
Answer: Its Potency is inconclusive: 3.55 µM [activator, single point].

Question: With `Cc1ccc2c(c1)c1ncnc(N3CCC4(CC3)OCCO4)c1n2C` as the compound, how does the Potency read?
Answer: The Potency was inconclusive: 17.8 µM [activator, single point].

Question: Which Potency does the source give for `CCOC(=O)C(=O)Nc1cccc(C(=O)OCC)c1` here?
Answer: The Potency was “inactive”.

Question: With `O=C1N/C(=C\c2ccccc2)c2ccccc21` as the compound, how does the Potency read?
Answer: Its Potency is inconclusive: 35.5 µM [activator, single point].

Question: For `O=C(Nc1nc2nc(-c3ccccc3)cc(-c3ccccc3)n2n1)c1ccco1`, which Potency is on record?
Answer: Its Potency is “inactive”.

Question: With `O=C1CSC2=NCN(c3ccc4c(c3)OCO4)CN12` as the compound, how does the Potency read?
Answer: Its Potency is inconclusive: 12.6 µM [activator, partial curve].

Question: Which Potency does the source give for `CN(C)c1cccc(C(=O)NCC2CCCO2)c1` (stereo unspecified) here?
Answer: The Potency was active: 28.2 µM.

Question: With `COc1cccc(OCC(=O)NC2CCCCC2)c1` as the compound, how does the Potency read?
Answer: The Potency was inconclusive: 17.8 µM [activator, single point].

Question: With `Cc1ccc(-c2cc(NC(=O)c3ccccc3Cl)on2)cc1` as the compound, how does the Potency read?
Answer: Its Potency is active: 12.6 µM.

Question: For `c1ccc2[nH]c(-c3cscn3)nc2c1`, which Potency is on record?
Answer: The Potency was active: 8.91 µM and active: 25.1 µM and active: 12.6 µM.

Question: Which Potency does the source give for `COc1ccc2cc(CN(Cc3ccco3)C(=S)NCC3CCCO3)c(=O)[nH]c2c1` (stereo unspecified) here?
Answer: The Potency was “inactive”.

Question: With `CCOC(=O)c1sc(NC(=O)C2CCC2)cc1C` as the compound, how does the Potency read?
Answer: The Potency was active: 15.8 µM.

Question: For `O=C(NCc1nnc(SCC(=O)N2CCCC2)o1)c1ccccc1F`, which Potency is on record?
Answer: Its Potency is inconclusive: 3.55 µM [activator, single point].

Question: Which Potency does the source give for `COc1ccc(F)cc1S(=O)(=O)Nc1ccc(C)cc1` here?
Answer: Its Potency is inconclusive: 11.2 µM [activator, partial curve].

Question: With `CC(C)OC(=O)CSc1nc2cc3c(cc2cc1C#N)OCO3` as the compound, how does the Potency read?
Answer: The Potency was inconclusive: 35.5 µM [activator, single point].

Question: With `O=C1CCCc2c1cc(-c1ccccc1)n2-c1ccc(O)cc1` as the compound, how does the Potency read?
Answer: Its Potency is inconclusive: 12.6 µM [activator, partial curve, poor fit].

Question: Which Potency does the source give for `COc1ccc(CCc2nnc(CCC(=O)NCc3cc(C(C)C)no3)o2)cc1` here?
Answer: Its Potency is inconclusive: 15.8 µM [activator, partial curve, poor fit].

Question: For `Cc1cc(O)c(C(C)C)cc1NC1=NS(=O)(=O)c2ccccc21`, which Potency is on record?
Answer: The Potency was inconclusive: 0.1 µM [activator, partial curve].

Question: With `CCOc1ccc(NC(=O)/C=C/c2ccccc2)c([N+](=O)[O-])c1` as the compound, how does the Potency read?
Answer: Its Potency is inconclusive: 15.8 µM [activator, partial curve].

Question: With `c1ccc2c(c1)Cn1nc(Cc3nc4c(s3)CCCC4)nc1-2` as the compound, how does the Potency read?
Answer: The Potency was inconclusive: 25.1 µM [activator, single point].

Question: For `Nc1nnc(SCC(=O)c2ccc3ccccc3c2)s1`, which Potency is on record?
Answer: Its Potency is inconclusive: 10 µM [activator, partial curve].

Question: With `COc1ccc(/C=C/c2nnc(NC(=O)CSc3ccc(Cl)cc3)s2)cc1` as the compound, how does the Potency read?
Answer: The Potency was active: 10 µM.

Question: For `CC(C)COc1ccc(C(=O)Nc2ccc(NC(=O)c3ccco3)c(Cl)c2)cc1`, which Potency is on record?
Answer: The Potency was “inactive”.

Question: With `COCCCNC(=O)CCn1c(=O)c2ccccc2n(CC(=O)Nc2ccc(C)cc2C)c1=O` as the compound, how does the Potency read?
Answer: Its Potency is “inactive”.

Question: For `C=CCn1c(SCC(=O)Nc2ccc(-c3nc4ccc(C)cc4s3)cc2)nnc1-c1ccncc1`, which Potency is on record?
Answer: Its Potency is active: 7.08 µM.

Question: With `N[C@@H](CO)C(=O)NNCc1ccc(O)c(O)c1O` as the compound, how does the Potency read?
Answer: Its Potency is “inactive”.

Question: With `CC(C)C(C)NC(=O)CSc1nc2scc(-c3ccco3)c2c(=O)n1-c1ccccc1` (stereo unspecified) as the compound, how does the Potency read?
Answer: The Potency was inconclusive: 10 µM [activator, partial curve].

Question: For `CCOc1ccccc1-c1nc(-c2ccc(C)nc2OC)no1`, which Potency is on record?
Answer: Its Potency is inconclusive: 31.6 µM [activator, single point].

Question: For `COc1ccc(/C=N/NC(=O)c2ccc(O)cc2)cc1CN1CCCc2ccccc21`, which Potency is on record?
Answer: The Potency was inconclusive: 11.2 µM [activator, partial curve].

Question: For `CCOc1ccc(NC(=O)CSc2nnc(CNC(=O)c3ccco3)o2)cc1`, which Potency is on record?
Answer: The Potency was “inactive”.

Question: Which Potency does the source give for `O=C(c1ccccc1)N(C1=NCCCCS1)c1ccccc1` here?
Answer: The Potency was inconclusive: 0.1 µM [activator, partial curve].

Question: With `C/C(=N\NC(=O)c1ccccc1F)c1ccc(C#N)cc1` as the compound, how does the Potency read?
Answer: Its Potency is inconclusive: 17.8 µM [activator, single point].

Question: Which Potency does the source give for `Cc1ccn2cc(-c3cccc(NC(=O)c4ccccc4)c3)nc2c1` here?
Answer: Its Potency is inconclusive: 3.16 µM [activator, partial curve, poor fit].

Question: For `COc1cccc(NC(=S)NCc2ccco2)c1`, which Potency is on record?
Answer: Its Potency is inconclusive: 0.891 µM [activator, full curve, poor fit].

Question: Which Potency does the source give for `C#CCn1c(C)cc(C)c(S(=O)(=O)c2ccccc2)c1=O` here?
Answer: The Potency was inconclusive: 14.1 µM [activator, single point].

Question: For `CCCCc1c(C)c2ccc(OCC(C)=O)cc2oc1=O`, which Potency is on record?
Answer: Its Potency is active: 15.8 µM.

Question: With `COc1ccc2oc(=O)c(C(=O)NCC3CCCO3)cc2c1` (stereo unspecified) as the compound, how does the Potency read?
Answer: The Potency was “inactive”.

Question: For `O=C(O)CC1COc2ccccc2N1C(=O)c1ccccc1Cl` (stereo unspecified), which Potency is on record?
Answer: Its Potency is “inactive”.

Question: Which Potency does the source give for `Cc1nc(COC(=O)c2ccc(S(=O)(=O)N3CCCC3)cc2)cs1` here?
Answer: Its Potency is “inactive”.

Question: Which Potency does the source give for `O=S(=O)(NCC1CC1)c1cccc(S(=O)(=O)N2CCCC2)c1` here?
Answer: Its Potency is inconclusive: 2.24 µM [activator, partial curve].

Question: For `c1ccc(Nc2nc3ccccc3[nH]2)nc1`, which Potency is on record?
Answer: The Potency was inconclusive: 20 µM [activator, single point].

Question: With `CCOC(=O)/C(C#N)=N/Nc1ccc(S(=O)(=O)N2CCc3ccccc32)cc1` as the compound, how does the Potency read?
Answer: Its Potency is “inactive”.

Question: With `CC(NC(=O)Nc1ccc2c(c1)OCO2)C1CCCO1` (stereo unspecified) as the compound, how does the Potency read?
Answer: The Potency was inconclusive: 11.2 µM [activator, partial curve].

Question: With `COc1ccc(C(=O)c2cnc(/N=C/N(C)C)s2)cc1` as the compound, how does the Potency read?
Answer: Its Potency is inconclusive: 10 µM [activator, partial curve, poor fit].

Question: Which Potency does the source give for `CCN=c1scc(-c2cccs2)n1/N=C/c1cc(OC)ccc1O` here?
Answer: The Potency was inconclusive: 5.01 µM [activator, single point].

Question: For `COc1ccc(CN(C(=O)CSc2nnc(-c3ccc(F)cc3)o2)c2ccc(F)cc2)cc1`, which Potency is on record?
Answer: The Potency was “inactive”.

Question: For `Cc1ccc(OCCCCn2c(CO)nc3ccccc32)cc1`, which Potency is on record?
Answer: The Potency was “inactive”.

Question: Which Potency does the source give for `CCOC(=O)Cc1csc(NC(=O)c2ccco2)n1` here?
Answer: Its Potency is active: 7.94 µM.

Question: With `Clc1ccc(/C=N/Nc2nnc(-c3ncc[nH]3)c3ccccc23)cc1` as the compound, how does the Potency read?
Answer: The Potency was inconclusive: 0.251 µM [activator, full curve, poor fit].

Question: Which Potency does the source give for `CCn1c(SCc2cccc(C(=O)O)c2)nnc1-c1ccccc1` here?
Answer: Its Potency is inconclusive: 12.6 µM [activator, single point].

Question: Which Potency does the source give for `CN1CCC(Oc2ccccc2Sc2ccc(C(F)(F)F)cc2)CC1` here?
Answer: Its Potency is “inactive”.

Question: Which Potency does the source give for `CCOC(=O)N1CCN(C(=O)CSCC(=O)Nc2nc(-c3ccc(OC)cc3)cs2)CC1` here?
Answer: Its Potency is inconclusive: 10 µM [activator, partial curve, poor fit].

Question: Which Potency does the source give for `O=C(N/N=C\CCc1ccccc1)c1ccco1` here?
Answer: Its Potency is inconclusive: 5.62 µM [activator, single point].

Question: With `Cc1ccsc1/C=N/N1CCN(Cc2ccccc2)CC1` as the compound, how does the Potency read?
Answer: The Potency was inconclusive: 14.1 µM [activator, single point].

Question: For `O=C(Nc1onc2c1CCCC2)c1ccccc1`, which Potency is on record?
Answer: The Potency was inconclusive: 0.0112 µM [activator, full curve, poor fit].

Question: With `Cc1ccc(CN2C(=O)SC(Nc3ccc(Cl)cc3)C2=O)cc1` (stereo unspecified) as the compound, how does the Potency read?
Answer: The Potency was “inactive”.

Question: With `CC(C)(C)C(=O)CSc1nc2ccccc2o1` as the compound, how does the Potency read?
Answer: Its Potency is inconclusive: 14.1 µM [activator, single point].

Question: With `COC(=O)C(CC(=O)c1cccc(OC)c1)c1ccc(F)cc1` (stereo unspecified) as the compound, how does the Potency read?
Answer: The Potency was “inactive”.

Question: Which Potency does the source give for `COC(=O)c1c(NC(=O)Cc2coc3cc(C)cc(C)c23)sc2c1CCC2` here?
Answer: The Potency was “inactive”.

Question: Which Potency does the source give for `Nc1ccc(-c2nc3ccc([N+](=O)[O-])cc3[nH]2)cc1` here?
Answer: Its Potency is active: 3.55 µM.

Question: With `C/C=C/c1ccc(OCC(=O)OCc2csc(Nc3ccc(C)cc3)n2)c(OC)c1` as the compound, how does the Potency read?
Answer: Its Potency is active: 11.2 µM.

Question: With `O=c1cc(COc2ccccc2Cl)nc2scc(-c3ccccc3)n12` as the compound, how does the Potency read?
Answer: The Potency was “inactive”.

Question: For `COc1cccc(C(=O)Nc2ccc(C3CC3(Cl)Cl)cc2)c1` (stereo unspecified), which Potency is on record?
Answer: Its Potency is active: 12.6 µM.
